The whole screen tested about 220,000 compounds, of which about 5,700 (2.6%) were called active. The shares of active, inactive and inconclusive entries below differ from those in the screen. Calls follow the shape of the dose curve; as a rule, active = well fitted inhibition curve with a large enough effect; inconclusive = small, poorly fitted or top-dose-only effect; inactive = no such curve, though single readings can be large or run the other way. Where the call is inconclusive, the potency comes from a doubtful curve fit.
Target: Lysine-specific demethylase 5B (Homo sapiens) (UniProt Q9UGL1)
Test: Primary screen for KDM5B Histone Demethylases FDH-coupled qHTS; also: nearly all actives have a fitted effect of over 70% in size; as to activity change, negative = inhibition: 0% is about no effect
Settings: FDH-coupled NADH fluorescence (FDH is formaldehyde dehydrogenase); activity change, negative = inhibition: at 57.7 µM (top of the series) unless noted
In short: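 Here, H3K4me3 peptide (12.5 µM in substrate mix) is demethylated by KDM5BΔAP, 200 nM final, after 10 min compound exposure. Formaldehyde product is coupled through FDH (0.25 U/mL in mix) to NADH fluorescence; 30-min ΔRFU feeds dose-response curves.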
Potency is read from the fitted curve at half-maximal effect; tags tell the direction and shape of the fitted curve.

UniProt Q9UGL1, sequence (Q9UGL1 whole entry, looked up): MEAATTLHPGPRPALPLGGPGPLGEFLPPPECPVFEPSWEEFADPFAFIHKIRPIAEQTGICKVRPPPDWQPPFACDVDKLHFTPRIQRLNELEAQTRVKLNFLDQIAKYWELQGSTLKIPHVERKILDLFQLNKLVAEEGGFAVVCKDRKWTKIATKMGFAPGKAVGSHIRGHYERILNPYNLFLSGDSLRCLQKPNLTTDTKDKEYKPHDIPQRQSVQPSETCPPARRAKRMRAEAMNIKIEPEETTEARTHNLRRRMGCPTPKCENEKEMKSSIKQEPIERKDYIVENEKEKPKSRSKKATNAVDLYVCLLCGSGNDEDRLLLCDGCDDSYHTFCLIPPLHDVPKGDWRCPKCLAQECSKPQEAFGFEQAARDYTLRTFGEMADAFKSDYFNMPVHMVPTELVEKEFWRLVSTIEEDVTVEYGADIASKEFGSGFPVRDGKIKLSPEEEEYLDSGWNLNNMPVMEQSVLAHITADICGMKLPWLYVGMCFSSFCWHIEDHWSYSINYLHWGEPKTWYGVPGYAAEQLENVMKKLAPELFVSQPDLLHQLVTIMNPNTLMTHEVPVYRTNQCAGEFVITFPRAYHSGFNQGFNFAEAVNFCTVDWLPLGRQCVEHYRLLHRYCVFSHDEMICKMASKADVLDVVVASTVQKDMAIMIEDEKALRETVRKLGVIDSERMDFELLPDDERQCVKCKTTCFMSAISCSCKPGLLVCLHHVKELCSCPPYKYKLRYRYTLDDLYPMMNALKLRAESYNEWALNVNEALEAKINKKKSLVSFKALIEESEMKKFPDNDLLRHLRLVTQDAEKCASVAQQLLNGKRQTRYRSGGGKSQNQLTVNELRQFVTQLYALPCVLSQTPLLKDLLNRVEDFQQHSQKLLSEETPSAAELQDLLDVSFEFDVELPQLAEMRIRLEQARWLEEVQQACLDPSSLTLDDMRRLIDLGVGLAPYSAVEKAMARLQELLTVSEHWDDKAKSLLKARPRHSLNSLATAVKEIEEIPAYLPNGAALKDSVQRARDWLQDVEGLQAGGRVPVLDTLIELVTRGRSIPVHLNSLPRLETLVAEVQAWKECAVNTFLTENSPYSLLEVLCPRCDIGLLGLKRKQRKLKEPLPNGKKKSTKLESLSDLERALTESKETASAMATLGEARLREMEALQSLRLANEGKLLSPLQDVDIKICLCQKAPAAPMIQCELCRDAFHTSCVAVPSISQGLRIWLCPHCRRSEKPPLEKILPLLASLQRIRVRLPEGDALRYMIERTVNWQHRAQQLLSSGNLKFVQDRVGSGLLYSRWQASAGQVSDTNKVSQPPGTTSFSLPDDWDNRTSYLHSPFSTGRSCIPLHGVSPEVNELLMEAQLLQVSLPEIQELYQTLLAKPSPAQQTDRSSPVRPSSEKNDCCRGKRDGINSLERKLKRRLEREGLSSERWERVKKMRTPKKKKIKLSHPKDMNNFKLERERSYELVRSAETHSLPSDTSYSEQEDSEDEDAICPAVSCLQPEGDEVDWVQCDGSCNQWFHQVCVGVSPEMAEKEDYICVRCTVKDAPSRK

| Structure (SMILES) | Potency | activity change, negative = inhibition |
| --- | --- | --- |
| COc1ccc(C(=O)NC(=S)NNC(=O)c2ccco2)cc1 | inconclusive: 35.5 µM [inhibitor, single point] |  |
| COc1cc(F)c(S(=O)(=O)Nc2ccccc2-c2n[nH]c(C3CC3)n2)cc1OC | inconclusive: 1.78 µM [inhibitor, full curve, poor fit] |  |
| COC(=O)C1CCN(c2nc3ccccc3nc2C(C#N)C(=O)NCc2ccccc2)CC1 (configuration not stated) | inconclusive: 35.5 µM [inhibitor, partial curve, poor fit] |  |
| COc1ccccc1-c1nc2nccc(-c3cc4ccccc4o3)n2n1 | active: 25.1 µM |  |
| O=C(N[C@@H]1CSC[C@H]1O)c1ccccc1 |  | inactive: 2.21% |
| CN1CCC(N2CC[C@H](c3nnc(-c4cccnc4)o3)C2)CC1 | inconclusive: 39.8 µM [inhibitor, partial curve, poor fit] |  |
| Cc1cc(C(C)(C)C)cc(C)c1S(=O)(=O)N1CC(=O)Nc2ccccc21 |  | inconclusive: -30.9% [inhibitor] |
| CC(OC(=O)c1nn(C)c(=O)c2ccccc12)C(=O)Nc1cccc(C(F)(F)F)c1 (configuration not stated) |  | inactive: -9.44% |
| COCCN1Cc2[nH]nc(-c3ccccc3OC)c2CC1=O | inconclusive: 11.2 µM [inhibitor, single point] |  |
| S=c1[nH]nc(CCCOc2ccc(Cl)cc2Cl)n1CC1CCCO1 (configuration not stated) |  | inactive: 1.15% |
| O=C(COC(=O)c1cc(=O)c2ccccc2o1)Nc1cc(C(F)(F)F)ccc1Cl | inconclusive: 25.1 µM [inhibitor, partial curve, poor fit] |  |
| Cc1ccc(C)c(/C=C/c2cc(C(=O)O)c3ccccc3n2)c1 | inconclusive: 1.78 µM [inhibitor, partial curve, poor fit] |  |
| O=C1[C@H]2CCCN2C(=O)C2C[C@@H](NS(=O)(=O)c3cccs3)CCN12 (some centres not stated) | inconclusive: 39.8 µM [inhibitor, partial curve, poor fit] |  |
| CCOc1cccc(CNC(=O)c2cc3n(n2)CC(c2ccc4c(c2)OCO4)OC3)c1 (configuration not stated) | inconclusive: 31.6 µM [inhibitor, partial curve] |  |
| O=C(NC[C@H]1O[C@@H](CC(=O)N2CCCC2)[C@H](O)[C@@H]1O)c1cccc(F)c1 | inconclusive: 22.4 µM [inhibitor, partial curve] |  |
| Cc1cccc(NC(=O)c2ccccc2NC(=O)CSc2nnc(-c3ccncc3)n2C2CC2)c1 |  | inactive: 7.22% |
| COCCCNCc1c2ccccc2c(Cl)c2ccccc12 | inconclusive: 20 µM [inhibitor, partial curve, poor fit] |  |
| CCCNC(=O)CCn1nc(-c2ccc(C)cc2)c2ccccc2c1=O |  | inconclusive: -30.1% [inhibitor] |
| Clc1cccc(-c2cnc([C@@H]3COCCN3Cc3ccccc3)[nH]2)c1 |  | inactive: 5.28% [at 86.2 µM] |
| CCC1=C(C(=O)OC)C(c2ccccc2OC)N2C(CC(=O)N3CCC(C)CC3)=CSC2=N1 (configuration not stated) | inconclusive: 28.2 µM [inhibitor, single point] |  |
| COc1ccc(NC(=O)CCn2nc(-c3cccs3)oc2=O)c(OC)c1 |  | inactive: -3.9% |

| Structure (SMILES) | Potency | activity change, negative = inhibition |
| --- | --- | --- |
| CC(C)N1CCc2c(sc(NC(=O)c3ccco3)c2-c2nc3ccccc3s2)C1 | inconclusive: 20 µM [inhibitor, partial curve, poor fit] |  |
| COC(=O)CNC(=O)N1CCc2c(nc3cc(-c4ccccc4Cl)[nH]n3c2=O)C1 | active: 22.4 µM |  |
| COc1ccc(S(=O)(=O)N2CCC(c3nnc(-c4ccccc4C)o3)CC2)c(OC)c1 | inconclusive: 22.4 µM [inhibitor, single point] |  |
| CC(C)(C)c1cc(C[C@@H]2C[C@H](NS(C)(=O)=O)C2(C)C)no1 | inconclusive: 39.8 µM [inhibitor, partial curve, poor fit] |  |
| COc1ncccc1CN(Cc1cccnc1OC)C[C@H]1COCc2nc3ccc(C)cc3n21 | inconclusive: 44.7 µM [inhibitor, partial curve, poor fit] |  |
| COc1ccc(-c2nnc(C[C@@H]3C[C@@H](C(C)C)[C@H](CN4CCN(CCO)CC4)C=C3C)o2)cc1 |  | inactive: -3.93% |
| Cc1cc(C(=O)N2CC[C@H]3C(=O)NCCCCCCN(Cc4ccncc4)[C@@H]3C2)n(C)n1 | inconclusive: 17.8 µM [inhibitor, partial curve, poor fit] |  |
| Cc1cc(N2CCNC(c3ccccc3)C2)n2nc(C)c(C)c2n1 (configuration not stated) |  | inactive: -48.7% |
| CC(C)=CC(=O)N(Cc1ccco1)C1CC1 |  | inactive: 7.89% |
| c1cn(CCCNCc2ccc(-n3ccnc3)cc2)cn1 |  | inactive: -2.17% |
| O=C(NC1CC(c2cc(N3CCC(O)C3)ncn2)C1)c1ccoc1 (configuration not stated) |  | inactive: -21.8% |
| Cc1cccn2c(=O)c(/C=C(\C#N)C(N)=O)c(N3CCN(c4cccc(Cl)c4)CC3)nc12 | inconclusive: 22.4 µM [inhibitor, single point] |  |
| Cc1cc(C(=O)N2CCC3(CC2)CC(c2ccccc2)C(=O)N(C)C3)n[nH]1 (configuration not stated) |  | inactive: 27.8% |
| Cc1cccn2c(=O)c3cc(C(=O)NCCc4ccc(S(N)(=O)=O)cc4)n(C)c3nc12 | inconclusive: 1.41 µM [inhibitor, full curve, poor fit] |  |
| FC(F)(F)c1cccc(-n2nnnc2C2(NC3CCCCC3)CCCC2)c1 |  | inactive: -20.1% |
| CC(=O)NC1(C)CCN(Cc2cccc(-c3ccc4c(c3)OCCN4C)c2)C1 (configuration not stated) | inconclusive: 44.7 µM [inhibitor, partial curve, poor fit] |  |
| COc1ccc(OC)c(C2C(C(N)=O)=C(C)Nc3nc(-c4cccc(Cl)c4)nn32)c1 (configuration not stated) | inconclusive: 1.41 µM [inhibitor, partial curve, poor fit] |  |
| CC(C)(C)c1ccc(OCC(=O)N(Cc2ccco2)Cc2ccccc2F)cc1 | inconclusive: 17.8 µM [inhibitor, partial curve, poor fit] |  |
| COc1ccc(CN2CCC(N3Cc4cccn4C3=O)CC2)cc1 | inconclusive: 56.2 µM [inhibitor, partial curve, poor fit] |  |
| Cn1cc(C(=O)O)c(=O)c2cc(S(=O)(=O)N3CCCCC3)ccc21 |  | inconclusive: -31.5% [inhibitor] |
| CCCC(=O)Oc1c(Sc2ccc(Cl)cc2)c(C)nn1-c1ccccc1 | inconclusive: 3.98 µM [inhibitor, partial curve, poor fit] |  |
